# Assay results published in the supplement of paper PMC9446081.
# Among all 39,000 compounds or so, about 220 (0.56%) showed activity. The list shows a part of the results.
# System: Escherichia coli K-12 BW25113
# Assay: relative growth (OD600 normalised to plate interquartile mean) (fraction); higher = less growth inhibition, active = 0.2 or less
# Settings: 50 µM; LB; incubation time: overnight (16-24 h)
# 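Further: static incubation at 37 °C against the wild-type strain, values averaged over two biological replicates.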
row,Structure (SMILES),relative growth
1,Cc1ccc(C=Nn2nnnc2N)s1,inactive: 0.963
2,COc1ccc(S(=O)(=O)Nc2ccc3c(c2)C(=O)N([C@@H](C)CO)C[C@@H](C)[C@H](CN(C)Cc2ccc4c(c2)OCO4)OCCCC[C@@H](C)O3)cc1,inactive: 1.01
3,C[C@@H]1CN([C@@H](C)CO)C(=O)c2cc(NS(=O)(=O)c3cccs3)ccc2O[C@H]1CN(C)S(=O)(=O)c1ccccc1,inactive: 0.993
4,C[C@@H]1CN([C@H](C)CO)C(=O)Cc2cc(NC(=O)Nc3ccc(C(F)(F)F)cc3)ccc2O[C@@H]1CN(C)C(=O)NC1CCCCC1,inactive: 1.02
5,C[C@@H]1CN([C@@H](C)CO)C(=O)c2cccc(NC(=O)CCCCCC(=O)Nc3ccccc3N)c2O[C@H]1CN(C)C(=O)Nc1ccc(C(F)(F)F)cc1,inactive: 1
6,COc1ccc(COC[C@]23N=C4SCCCN4[C@H](c4ccccc4O2)[C@H]3COC(=O)c2ccccc2)cc1,inactive: 1
7,COc1ccc(CN(C)C[C@H]2Oc3ccc(NS(=O)(=O)c4c(C)noc4C)cc3C(=O)N([C@H](C)CO)C[C@H]2C)cc1,inactive: 0.982
8,NC(=O)c1cccc(CN2CCOCC2)c1,inactive: 0.999
9,COc1ccc(NC(=O)Nc2ccc3c(c2)[C@@H]2C[C@@H](CC(=O)NCC(F)(F)F)O[C@@H](CO)[C@@H]2O3)cc1,inactive: 0.978
10,C[C@@H]1CN([C@@H](C)CO)C(=O)c2cc(NC(=O)Nc3ccccc3)ccc2O[C@@H](C)CCCCO[C@H]1CN(C)Cc1ccc(C(=O)O)cc1,inactive: 1.02
11,COc1ccc2cc1Oc1ccc(cc1)C[C@H]1c3cc(c(OC)cc3CCN1C)Oc1c(OC)c(OC)cc3c1[C@H](C2)N(C)CC3,inactive: 1.03
12,C[C@H]1CCCn2nncc2COCCNC1=O,inactive: 1.02
13,COc1ccc(S(=O)(=O)Nc2ccc3c(c2)C(=O)N([C@@H](C)CO)C[C@@H](C)[C@@H](CN(C)S(=O)(=O)c2cn(C)cn2)OCCCC[C@H](C)O3)cc1,inactive: 1.01
14,Cc1noc(C)c1S(=O)(=O)Nc1ccc2c(c1)C(=O)N([C@@H](C)CO)C[C@@H](C)[C@H](CN(C)C)OCCCC[C@@H](C)O2,inactive: 1.01
15,CC(C)NC(=O)Nc1cccc2c1O[C@H](CN(C)S(=O)(=O)c1cccs1)[C@H](C)CN([C@H](C)CO)C2=O,inactive: 0.997
16,Cc1cccc(CN2CCN(C(c3ccccc3)c3ccc(Cl)cc3)CC2)c1.Cl.Cl (stereo not drawn),inactive: 0.969
17,CC(C)OC(=O)[C@H](C)N[P@](=O)(OC[C@H]1O[C@@H](n2ccc(=O)[nH]c2=O)[C@](C)(Cl)[C@@H]1O)Oc1ccccc1,inactive: 0.995
18,C[C@H]1CN([C@@H](C)CO)C(=O)c2cc(NC(=O)Nc3cccc4ccccc34)ccc2O[C@@H]1CN(C)S(=O)(=O)c1ccc(F)cc1,inactive: 1.04
19,COc1cc2c(cc1OC)CN(C(=O)[C@@H]1[C@H]3C(=O)O[C@H](c4ccccc4)[C@H](c4ccccc4)N3[C@H](c3ccc(O)cc3)[C@@]13C(=O)Nc1ccc(C#CC4(O)CCCCCC4)cc13)CC2,inactive: 1.02
20,O=C(O)[C@@H]1[C@@H](CO)[C@@H]2Cn3c(ccc(-c4cncnc4)c3=O)[C@@H]2N1C(=O)C1CCC1,inactive: 1

row,Structure (SMILES),relative growth
1,C[C@H]1CN([C@@H](C)CO)C(=O)Cc2cc(NC(=O)c3ccncc3)ccc2O[C@@H]1CN(C)Cc1ccc(-c2ccccc2)cc1,inactive: 1
2,C[C@@H]1CCCCO[C@@H](CN(C)S(=O)(=O)c2cn(C)cn2)[C@H](C)CN([C@H](C)CO)C(=O)c2cc(NC(=O)Nc3cccc4ccccc34)ccc2O1,inactive: 1.01
3,C[C@@H]1CN([C@H](C)CO)C(=O)c2cccc(NC(=O)c3nc4ccccc4s3)c2O[C@@H]1CN(C)Cc1ccc(Cl)c(Cl)c1,inactive: 1.03
4,CCS(=O)(=O)N1C[C@]2(CCN(CC2)C(=O)c2cccnc2)c2c(n(c3cc(ccc23)OC)C)[C@H]1CO,inactive: 0.993
5,C[C@@H]1CCCCO[C@H](CN(C)S(=O)(=O)c2ccccc2)[C@H](C)CN([C@H](C)CO)C(=O)c2cc(NS(=O)(=O)c3cn(C)cn3)ccc2O1,inactive: 1
6,C[C@@H]1CN([C@@H](C)CO)C(=O)c2cccc(NC(=O)c3ccc(-c4nccs4)cc3)c2O[C@@H]1CN(C)Cc1ccc2c(c1)OCO2,inactive: 1.04
7,C[C@H]1CN([C@@H](C)CO)C(=O)c2cccc(NC(=O)c3cnccn3)c2O[C@H]1CN(C)C(=O)Nc1ccc(F)cc1,inactive: 1.03
8,CCCC(=O)Nc1ccc2c(c1)C(=O)N(C)[C@@H]1CC[C@H](CC(=O)NCCN3CCCCC3)O[C@H]1CO2,inactive: 0.974
9,CO/N=[N+](\[O-])N1CCC[C@H](C(N)=O)C1,inactive: 0.945
10,COc1ccc(S(=O)(=O)Nc2ccc3c(c2)CC(=O)N([C@@H](C)CO)C[C@H](C)[C@H](CN(C)S(=O)(=O)c2cccs2)O3)cc1,inactive: 0.996
11,CCN(CC)c1ccc(N2CC=C[C@@]34O[C@@H]5C=CCCOC(=O)[C@@H]5[C@H]3C(=O)N(CCCO)[C@@H]4C2=O)cc1,inactive: 0.98
12,Cc1noc(C)c1NC(=O)Nc1ccc2c(c1)C(=O)N([C@H](C)CO)C[C@@H](C)[C@@H](CN(C)S(C)(=O)=O)O2,inactive: 0.995
13,O=C(O)c1ccc(CCO)s1,inactive: 1.01
14,CC1(C)CC(/C=C/c2ccccc2)=Nc2ccccc2N1,inactive: 1.03
15,COCC#Cc1ccc2c(c1)O[C@H](CN(C)Cc1ccc3c(c1)OCO3)[C@@H](C)CN([C@@H](C)CO)S2(=O)=O,inactive: 1.02
16,CO[C@@H]1CN(C)C(=O)c2cc(NS(=O)(=O)c3ccccc3)ccc2OC[C@H](C)N(C(=O)NC(C)C)C[C@H]1C,inactive: 1
17,C[C@@H]1CCCCO[C@@H](CN(C)Cc2ccc3c(c2)OCO3)[C@H](C)CN([C@@H](C)CO)C(=O)c2cc(NC(=O)NC3CCCCC3)ccc2O1,inactive: 0.973
18,COC(=O)C[C@H]1C=C[C@H](N)[C@H](CO)O1,inactive: 0.979
19,C[C@@H]1CN([C@H](C)CO)C(=O)c2cc(NC(=O)c3ccccc3)ccc2O[C@@H](C)CCCCO[C@H]1CN(C)C(=O)Nc1cccc2ccccc12,inactive: 1.07
20,O=C1C[C@@](C(=O)NCc2ccccc2)(c2ccc([N+](=O)[O-])cc2)[C@@H](c2ccc(CO)cc2)N1CC12CC3CC(CC(C3)C1)C2,inactive: 1.02

row,Structure (SMILES),relative growth
1,C[C@H](CO)N1C[C@H](C)[C@H](CN(C)C(=O)Nc2ccc(C(F)(F)F)cc2)Oc2ccc(NC(=O)NC3CCCCC3)cc2CC1=O,inactive: 1.03
2,COc1ccc(NC(=O)Nc2cccc3c2O[C@H](CN(C)C(=O)Nc2ccc(C(F)(F)F)cc2)[C@H](C)CN([C@H](C)CO)C3=O)cc1,inactive: 0.984
3,COc1ccc(NC(=O)N(C)C[C@@H]2OCCCC[C@H](C)Oc3ccc(NC(=O)Nc4ccc(C(F)(F)F)cc4)cc3C(=O)N([C@H](C)CO)C[C@@H]2C)cc1,inactive: 1.01
4,C[C@H](CO)N1C[C@H](C)[C@@H](CN(C)S(=O)(=O)c2ccccc2)OCCCC[C@H](C)Oc2ccc(NS(C)(=O)=O)cc2C1=O,inactive: 1.02
5,C[C@@H]1CN([C@H](C)CO)C(=O)c2cccc(NS(=O)(=O)c3ccc(Cl)cc3)c2O[C@@H]1CN(C)Cc1ccc(C(=O)Nc2ccccc2N)cc1,inactive: 0.984
6,CN1CCN(C(=O)C[C@@H]2CC[C@@H]3[C@H](COC[C@@H](O)CN3C(=O)Nc3ccc4c(c3)OCO4)O2)CC1,inactive: 0.99
7,C[C@@H]1CN([C@@H](C)CO)C(=O)c2cccc(NC(=O)Nc3ccc4c(c3)OCO4)c2O[C@H]1CN(C)Cc1ccc(Oc2ccccc2)cc1,inactive: 1.01
8,COCCOC(=O)N1C(=O)[C@@]2(c3cc(C#CCC(C(=O)OC)C(=O)OC)ccc31)[C@H](c1ccc(OCCO)cc1)N1[C@H](c3ccccc3)[C@H](c3ccccc3)OC(=O)[C@H]1[C@@H]2C(=O)N1CCc2cc(OC)c(OC)cc2C1,inactive: 1.03
9,C[C@@H]1CCCCO[C@H](CN(C)Cc2ccncc2)[C@@H](C)CN([C@H](C)CO)C(=O)c2cc(NC(=O)NC3CCCCC3)ccc2O1,inactive: 1
10,COc1cccc(S(=O)(=O)Nc2ccc3c(c2)[C@H]2C[C@H](CC(=O)NCC(F)(F)F)O[C@H](CO)[C@H]2O3)c1,inactive: 0.985
11,Cc1noc(C)c1S(=O)(=O)N(C)C[C@@H]1OCCCC[C@H](C)Oc2ccc(NS(=O)(=O)c3cn(C)cn3)cc2C(=O)N([C@H](C)CO)C[C@@H]1C,inactive: 0.989
12,C[C@@H]1CN([C@H](C)CO)C(=O)Cc2cc(NC(=O)Nc3ccc(C(F)(F)F)cc3)ccc2O[C@@H]1CN(C)Cc1ccc(-c2ccccc2)cc1,inactive: 1.02
13,CN1C(=O)Cc2ccccc2C1=O,inactive: 0.978
14,C[C@@H]1CN([C@H](C)CO)C(=O)Cc2cc(NS(=O)(=O)c3ccc(Cl)cc3)ccc2O[C@@H]1CN(C)Cc1ccc(Oc2ccccc2)cc1,inactive: 0.998
15,CCC(C)(C)NC(=N)NC#N,inactive: 0.988
16,C[C@@H]1CN([C@H](C)CO)C(=O)c2cc(NC(=O)Nc3ccc(F)cc3)ccc2O[C@@H](C)CCCCO[C@@H]1CN(C)S(=O)(=O)c1cccs1,inactive: 1.04
17,CO[C@@H]1CN(C)C(=O)c2cc(NS(C)(=O)=O)ccc2OC[C@H](C)N(C(=O)CN(C)C)C[C@H]1C,inactive: 0.981
18,C/C=C/c1cnc2c(c1)C(=O)N([C@@H](C)CO)C[C@@H](C)[C@@H](CN(C)S(=O)(=O)c1ccc(OC)cc1)O2,inactive: 0.968
